Data published in PubChem BioAssay AID624417 (National Center for Advancing Translational Sciences (NCATS), 2012).
Where “and” joins values, the source holds several entries; their conditions need not be identical. Equal entries are not always repeated. About 6,400 (1.6%) of roughly 410,000 compounds were called active. The inconclusive results got no clear call from the source; some entries with a clear call stand among them for comparison. Calls come from the whole dose curve; as a rule, active = well fitted inhibition curve with a large enough effect; inconclusive = small, poorly fitted or top-dose-only effect; inactive = no such curve, though single readings can be large or run the other way. Potencies of inconclusive entries are doubtful fits and often do not repeat.

Biological target: Glucagon-like peptide 1 receptor (Homo sapiens) (UniProt P43220)
Test: qHTS of GLP-1 Receptor Inverse Agonists (Inhibition Mode); note: nearly all actives have a fitted effect of over 55% in size
Details: HEK293 GLP-1R CRE-luciferase, luminescence, 24 h, GLP-1R form is constitutively active; activity change, negative = inhibition: at 38.3 µM (top of the series) unless noted
How it was run: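 Using stably transfected HEK293 (constitutively active GLP-1R, cAMP-luciferase reporter), compounds were incubated 24 hr and luciferase measured by luminescence.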
% is set by controls: 0 for no effect and ±100 for the full control effect; potency is the fitted concentration of half-maximal effect; tags give direction and shape of the fitted curve.

UniProt P43220, sequence (P43220 whole entry, looked up): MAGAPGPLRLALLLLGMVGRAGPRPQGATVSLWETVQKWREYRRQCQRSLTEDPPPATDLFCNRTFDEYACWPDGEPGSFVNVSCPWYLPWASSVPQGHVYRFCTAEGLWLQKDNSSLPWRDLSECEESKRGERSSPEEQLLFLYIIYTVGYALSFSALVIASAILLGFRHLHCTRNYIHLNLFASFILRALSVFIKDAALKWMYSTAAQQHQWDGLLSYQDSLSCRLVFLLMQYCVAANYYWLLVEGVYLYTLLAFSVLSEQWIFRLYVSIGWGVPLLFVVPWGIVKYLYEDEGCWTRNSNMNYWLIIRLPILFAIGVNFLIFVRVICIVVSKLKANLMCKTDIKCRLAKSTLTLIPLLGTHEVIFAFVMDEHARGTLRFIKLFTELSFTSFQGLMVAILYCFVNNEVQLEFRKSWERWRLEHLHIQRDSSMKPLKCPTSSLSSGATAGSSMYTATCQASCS

Structure (SMILES) | Potency | activity change, negative = inhibition
Cc1ccc(-n2c(C)cc(C(=O)Cn3nc(C(=O)O)c4ccccc4c3=O)c2C)cc1 | inconclusive: 11.2 µM [inhibitor, partial curve, poor fit] | –
Cc1nc2cc(NS(=O)(=O)c3c(C)c(C)cc(C)c3C)ccc2s1 | inconclusive: 11.2 µM [inhibitor, partial curve, poor fit] | –
Cc1cccc2c1-c1sc(C(=O)Nc3nccs3)cc1CO2 | – | inactive: 4.47%
CCc1ccc(N2C(=O)CC(c3cc(OC)ccc3OC)C3=C2COC3=O)cc1 (stereo unspecified) | – | inactive: -1.33%
N#CC(C(=S)Nc1ccccc1)c1nc2ccccc2[nH]1 (stereo unspecified) | inconclusive: 1.26 µM [inhibitor, full curve, poor fit] | –
CN1CCN(S(=O)(=O)c2ccc(Cl)cc2)CC1 | inactive | –
COc1ccc(C2NC(=O)NC(c3ccccc3)=C2c2nc3ccccc3s2)cc1 (stereo unspecified) | inconclusive: 14.1 µM [inhibitor, single point] | –
Cn1c(NCc2cccnc2)nc2cc(-c3ccc(C(=O)N4CCOCC4)cc3)sc2c1=O | – | inactive: -0.291%
COc1ccc(C(O)(C2CCCCC2)C(CN2CCOCC2)c2ccccc2)cc1 (stereo unspecified) | inconclusive: 6.31 µM [inhibitor, full curve, poor fit] | –
CC(C)(C)C(=O)N1CCC2CC1c1cc(-c3ccc4c(c3)OCO4)ccc12 (stereo unspecified) | inconclusive: 10 µM [inhibitor, partial curve] | –
CCc1c(N)nc(N)nc1Nc1ccc(C)c(C)c1 | inconclusive: 11.2 µM [inhibitor, partial curve, poor fit] | –
CCCCSc1nnc(-c2ccc(C)cc2)n1C | inconclusive: 22.4 µM [inhibitor, single point] | –
O=C(N/N=C/c1ccccc1O)C1SCCCS1 | inconclusive: 28.2 µM [inhibitor, single point] | –
CC(C)c1ccc(OCC(=O)Nc2ccc(OC(F)(F)F)cc2)cc1 | inconclusive: 10 µM [inhibitor, single point] | –
COc1ccc2nc(-c3ccccn3)ccc2c1 | inconclusive: 10 µM [inhibitor, partial curve, poor fit] | –
CCc1nc2c(OCc3cccc(OC)c3)cccn2c1N(C)C(=O)c1ccccc1F | inconclusive: 12.6 µM [inhibitor, single point] | –
Nc1ncc(-c2ccccc2)c(-c2ccc(OCc3ccccc3)cc2O)n1 | inconclusive: 14.1 µM [inhibitor, single point] | –
COC(=O)c1ccc(Cn2cc(/C=C\[N+](=O)[O-])c3ccccc32)o1 | inconclusive: 28.2 µM [inhibitor, single point] | –
CCN(C(=O)CSc1nc2ccccc2n1CC(=O)Nc1ccccc1C)c1ccccc1 | – | inactive: -20.7%
CC1CCCN(C(=O)c2ccc3c(=O)n(C4CCCC4)c(=S)[nH]c3c2)C1 (stereo unspecified) | inconclusive: 2 µM [inhibitor, full curve, poor fit] | –
Cn1cnnc1SCc1ccc(C(=O)N/N=C(\CCC(=O)O)c2ccc(C(C)(C)C)cc2)cc1 | – | inactive: 0%

Structure (SMILES) | Potency | activity change, negative = inhibition
O=[N+]([O-])c1cc(C(F)(F)F)ccc1N1CCN(S(=O)(=O)c2ccc3c(c2)CCCC3)CC1 | inconclusive: 10 µM [inhibitor, partial curve, poor fit] | –
CCCC[C@@H]1CNC(=S)N1CC1CCCCC1 | inconclusive: 11.2 µM [inhibitor, single point] | –
COc1ccc(-c2[nH]c3ccccc3c2SCCNC(=O)c2ccccc2)cc1 | inconclusive: 8.91 µM [inhibitor, partial curve, poor fit] | –
COc1cccc(CC2(CO)CCCN(Cc3ccc(CO)o3)C2)c1 (stereo unspecified) | – | inactive: -12.7%
Cc1ccc(C(=O)NCC#N)cc1 | – | inactive: 10.7%
Cc1cc(C)cc(NC(=O)CCc2nnc3n(CC(C)C)c(=O)c4ccccc4n23)c1 | – | inactive: 3.77%
CC1CCCN(C(=O)CSCC(=O)Nc2nc(-c3cccs3)cs2)C1 (stereo unspecified) | inconclusive: 28.2 µM [inhibitor, single point] | –
Cc1ccc(SCCC(=O)NC(C(C)C)C(C)C)cc1 | inconclusive: 10 µM [inhibitor, partial curve, poor fit] | –
O=C(CSc1ncnc2ccccc12)Nc1cccc(S(=O)(=O)N2CCCC2)c1 | inconclusive: 10 µM [inhibitor, partial curve, poor fit] | –
CCc1nc2cccnc2n1-c1ccc(CC(=O)Nc2ccc(C)cc2)cc1 | – | inactive: 9.22%
c1ccc2sc(SCSc3nc4ccccc4s3)nc2c1 | inconclusive: 8.91 µM [inhibitor, partial curve, poor fit] | –
O=[N+]([O-])c1ccc(O)c(P(=O)(c2ccccc2)c2ccccc2)c1 | inconclusive: 7.08 µM [inhibitor, partial curve, poor fit] | –
O=C(CSc1nc2ccccc2s1)N/N=C/c1cc([N+](=O)[O-])ccc1O | inconclusive: 10 µM [inhibitor, partial curve, poor fit] | –
O=C(NC(c1ccc(Cl)cc1)c1cnccn1)C1CCN(Cc2ccc(Oc3ccccc3)cc2)CC1 (stereo unspecified) | inconclusive: 10 µM [inhibitor, single point] | –
O=C(c1cc(-c2ccccc2)nc2ccccc12)N1CCCC1 | inconclusive: 12.6 µM [inhibitor, single point] | –
CCOC(=O)c1sc(NC(=O)c2cc3c(s2)CCC(C)C3)nc1C (stereo unspecified) | inconclusive: 1.58 µM [inhibitor, partial curve, poor fit] | –
O=C(Cn1c(=O)n(-c2ccccc2Cl)c(=O)c2sc3ccccc3c21)N1CCCC1 | – | inactive: 10.3%
COc1ccc(C2CC(c3ccccc3)=NN2c2ccccc2)c(C(=O)O)c1OC (stereo unspecified) | inconclusive: 2.24 µM [inhibitor, full curve] | –
Cc1onc(-c2c(F)cccc2Cl)c1C(=O)Nc1sc2c(c1C#N)CCC(C(C)(C)C)C2 (stereo unspecified) | inconclusive: 2.51 µM [inhibitor, full curve, poor fit] | –
O=C(CCSCc1ccccc1Cl)N1CCN(c2cccc(Cl)c2)CC1 | inconclusive: 12.6 µM [inhibitor, partial curve, poor fit] and inconclusive: 28.2 µM [inhibitor, single point] | –
